The record followed here is publication PMC10726135.

Some of the results follow. At the low end of the ranking the order means little. Measured with an extract: partners may take part in the binding.

This test deals with T1, HNF4alpha8 (COS-7 nuclear extract) (UniProt P41235-5).
T1 sequence: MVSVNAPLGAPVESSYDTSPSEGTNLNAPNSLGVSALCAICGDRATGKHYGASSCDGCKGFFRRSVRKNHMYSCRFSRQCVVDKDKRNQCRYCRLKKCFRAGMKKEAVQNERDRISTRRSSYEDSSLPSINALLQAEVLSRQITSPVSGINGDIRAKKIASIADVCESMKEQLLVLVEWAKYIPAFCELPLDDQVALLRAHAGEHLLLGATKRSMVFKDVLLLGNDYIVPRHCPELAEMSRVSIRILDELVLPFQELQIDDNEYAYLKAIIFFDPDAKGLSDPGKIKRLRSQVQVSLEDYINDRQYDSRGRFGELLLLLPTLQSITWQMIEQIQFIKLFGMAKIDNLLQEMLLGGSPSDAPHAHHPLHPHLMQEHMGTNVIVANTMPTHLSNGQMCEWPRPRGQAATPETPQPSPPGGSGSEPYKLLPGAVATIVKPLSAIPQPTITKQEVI
As to the kind of experiment: protein-binding microarray. The note with it: COS-7 nuclear extract on double-stranded Agilent 4x180k PBM; binding buffer, salt, pH and temperature not given; high values mean tight binding; double strand, one strand shown; sequences stand for … in …GCCTAGGGAGATTAGAGTATCGGTCGA
Consider CCCAGCCTATTAACCCCAAATTCCTCATGC, for which the binding signal (log2 normalized intensity) is 1.31.

Regarding CCTTCAACTGATTAGATAAGGTTCACCCAC, the binding signal (log2 normalized intensity) amounted to 1.88.

As to GGGCCAAAAGCAGCCATTAAGAAGCAAGTG, the binding signal (log2 normalized intensity) was -1.11.

Regarding TGAGAGAGCTGCATTGCTTCTGAAGGCTTA, the binding signal (log2 normalized intensity) is -1.37.

Consider TCTTCTCAGTGTTTTGGGTCCTACAGAACC, for which the binding signal (log2 normalized intensity) turned out to be 0.643.

As to CCAGATGAGAGCAGAGGCTGGGGCCCTCTT, the binding signal (log2 normalized intensity) is -1.28.

Turning to GGACTTTGGTCTCATGGGCCTAAACATTCC, the binding signal (log2 normalized intensity) is 5.24.

ACGGGGGCCGCTCTCCCTCCAGGCCCCAGC: the binding signal (log2 normalized intensity) is -1.29.

Regarding ACTGTCATGGATGACCTCTTTTAGTAACTG, the binding signal (log2 normalized intensity) was found to be 2.02.

For the sequence TGAAGAGGCCAGGGGCACTCTCTGTTATCA, the binding signal (log2 normalized intensity) is -0.997.

In the case of TTAGGATGACCTTTAGATTCTTACAGGCAA, the binding signal (log2 normalized intensity) is 4.57.

Regarding TTTCATTCCACTGACTTGCAACCTTTGCCC, the binding signal (log2 normalized intensity) came to 7.51.

For the sequence AATTTCAGAGGGAAGAGGAAGCATCCTATA, the binding signal (log2 normalized intensity) was -1.31.

CAAAGGTCATAATTTGATCCAGTGTGCAAA: the binding signal (log2 normalized intensity) turned out to be 4.08.

As to TGGTGTTGAAGCTCTGGTTCAAACAAGGCC, the binding signal (log2 normalized intensity) was -0.24.

For the sequence ATATCTGCCTCAGTAGTAGTGAAAAATGAA, the binding signal (log2 normalized intensity) was 0.637.

TAGGCTTGGAGCCTTGTAAAATGTACATGG: the binding signal (log2 normalized intensity) came to 1.09.

For the sequence TCCCTGCCCACATCCATTTTCTATCCTACT, the binding signal (log2 normalized intensity) was -0.948.

For the sequence CTAGAACAGCTCCTTTGAAGCTTCGAGCCT, the binding signal (log2 normalized intensity) is -1.4.

Regarding TGCCCAAAAGGACACAGGGTCTGTTTTCAA, the binding signal (log2 normalized intensity) was -0.222.

As to ATGTCCCTACCACATACAGAATCCTTTACC, the binding signal (log2 normalized intensity) was -1.16.

For CTGGCTTGGAAAAAGCAGGCAACCAAGGGT, the binding signal (log2 normalized intensity) is -1.26.

For the sequence TATCTTCCAGACCTTCTTAAAAAGTGTTGA, the binding signal (log2 normalized intensity) was determined as 1.15.

TTTGCCTTAGGCCATTGTCCTTTGGGCTCA: the binding signal (log2 normalized intensity) is 2.13.

TTTGTTAACAGCTTCTGTTCGCAGACCTGC: the binding signal (log2 normalized intensity) was -1.29.

As to GTCCTCCACAGCGTTTTCCTCCAGCCTGTC, the binding signal (log2 normalized intensity) is -1.3.

Take TCAGAAGGGAGGTAGTCGCCCTCCGTCGTG: the binding signal (log2 normalized intensity) came to 0.247.

In the case of TGTTGTCTAACATTTTTGACCTTCAGCATC, the binding signal (log2 normalized intensity) came to 5.92.

GTAAAGATCTTGAGGCCCACAAGGAATTTC: the binding signal (log2 normalized intensity) is -1.2.

With CAGTGAGATTAGGAAGTGTGCACAAGTCCT, the binding signal (log2 normalized intensity) is -0.955.

For ACTAAAACCTGCTGCAGGAGAGATGGTCAG, the binding signal (log2 normalized intensity) was found to be 0.619.

As to ACTGATAGTCTCCTATCAAGAAAATAGAAG, the binding signal (log2 normalized intensity) was -1.34.

Take TATCATCTGATCCTTGTACCTGCGACTGAG: the binding signal (log2 normalized intensity) was determined as 1.7.

As for GCTTTTGGAAGGACTTCGAATGGTATGCTA, the binding signal (log2 normalized intensity) was -0.468.

For AAGGATAAATACTTCTCCTCTTATCTTCAG, the binding signal (log2 normalized intensity) is -1.08.

As for GCTGAAAGCTCCAAGTTTATAATCCTAGCT, the binding signal (log2 normalized intensity) was -1.21.

On to TTGTTGTTAGAACAAAGTCCAAATTCCTAA, for which the binding signal (log2 normalized intensity) was 5.05.

With CAGTTATCATTTCTACAGGGTCAAGCAAAC, the binding signal (log2 normalized intensity) came to 2.04.

With AGGAGTGGACTGTTCAAGACCAAAGGTCAT, the binding signal (log2 normalized intensity) was 6.44.

For TTCCCAAGTGCTAGCTTGGTCTGAACCTCA, the binding signal (log2 normalized intensity) came to 1.42.

ATGTCCTCAGTACACTGCCTCCTTCAAGGA: the binding signal (log2 normalized intensity) is -1.33.

In the case of CCCAAGTGGCCATCTTCACGCAATACTAGC, the binding signal (log2 normalized intensity) was -1.23.

As to AAAGTCAACGGCTCTGCATATGCCAACAGG, the binding signal (log2 normalized intensity) is -0.804.

Regarding GCCACTGTGTGTGTGTGTGTGTCTGTGTGT, the binding signal (log2 normalized intensity) came out at 3.19.

Take CACTGCACCTGCCTGAACAAGTCCAGTGAC: the binding signal (log2 normalized intensity) is -1.22.

For AGAGCAAGGGTCAAGGGTCATTTGTTTTTA, the binding signal (log2 normalized intensity) amounted to 6.31.

For the sequence AATGATTGCATAATCTGGCTCCAAAGTCTA, the binding signal (log2 normalized intensity) was determined as 2.98.

On to AGGTAAAAAGTCCAGCTGCCAGGGAGACAA, for which the binding signal (log2 normalized intensity) was -1.24.

Consider GAGGTTATTTCACCCCAGCAAACAGGTCCT, for which the binding signal (log2 normalized intensity) was 1.83.

As for CACTTGTGCAGTTTTTCTGCCGAAGATATT, the binding signal (log2 normalized intensity) was found to be 1.4.

In the case of AGTTTCAACTTAACCCCAGTTTAGCAATTT, the binding signal (log2 normalized intensity) worked out at 2.08.

For CAAAGGTCATACCTGTCTAGGTGGAGGGAC, the binding signal (log2 normalized intensity) is 3.49.

As for TCTGCTGCCCTCTAGGGTTGCCCAGGGAGA, the binding signal (log2 normalized intensity) is 0.182.

For CCAGGGGAGGGTAAGAGTCCAACTTCTGCA, the binding signal (log2 normalized intensity) stood at 3.4.

With GAGCTTCAGACGCCCTATGGCGTCCGCCTC, the binding signal (log2 normalized intensity) is -1.32.

With TGCCTCTGAGCTAAGATAACCATCAAATCC, the binding signal (log2 normalized intensity) is -1.3.

With TCTTTCAGTGTTGACCTTTGAACATTTCTT, the binding signal (log2 normalized intensity) was determined as 8.97.

Turning to TTCTGCATGTCATAGTTGACATTCCATCAT, the binding signal (log2 normalized intensity) came out at 0.58.

For CCCTGCCTGACCTGCCCTTTGTCCCTCCTG, the binding signal (log2 normalized intensity) was found to be 5.06.

Turning to CTGGAATGTTTCAAGTGGCCTGATTTGACA, the binding signal (log2 normalized intensity) came out at 1.04.

Consider CTGACGCAACAGAAAACTCAACTTCTAACT, for which the binding signal (log2 normalized intensity) is -1.47.

For GGGAGTGCAGAGAGAGAGGGAGACAACCTT, the binding signal (log2 normalized intensity) is -1.37.

Turning to GCACAGGGAATGGCTCGTATGAATGTGGGA, the binding signal (log2 normalized intensity) is -1.34.

For CCCTCAGGGTTTAGGCCTGGGACCTTTCCA, the binding signal (log2 normalized intensity) was determined as 0.634.

In the case of AAGAGATAAGGGTGGCCATCCATCCTGGCG, the binding signal (log2 normalized intensity) was -1.17.

As for CCTTTGAGAGTCAACACTGAAATAGCATAC, the binding signal (log2 normalized intensity) came to 0.103.

TGAGTTCCACAGATAAGGAGGAGACAGACT: the binding signal (log2 normalized intensity) was -1.1.

Consider AGCAGACCCCTACTGGGGATGGACTTTGGC, for which the binding signal (log2 normalized intensity) amounted to 6.94.

Take CTTGGAGGACCTTGGGTTCATTTTACAATG: the binding signal (log2 normalized intensity) was 2.08.

With ACATTCCATGAGCTGGCCTCACTAAGTCCT, the binding signal (log2 normalized intensity) is -0.885.

Consider TATAGAAAAGGAAAGTGAGGCCTGGCCGAG, for which the binding signal (log2 normalized intensity) was -1.18.

With CAGAATGAACAGCTCTTCTTGCCAGCTGGC, the binding signal (log2 normalized intensity) was -1.28.

As for CTGACCCCAAGTAATAGCCGTTTCTGTCCA, the binding signal (log2 normalized intensity) amounted to 1.67.

Turning to TTGTAAAGGGTAATCTGCTTTTCTCGAAGC, the binding signal (log2 normalized intensity) was -1.14.

CCACGGAGCACATTCCATGCCCGGGTTGCT: the binding signal (log2 normalized intensity) is -1.29.

Take AGGGACTCAGGCACACAAAAAAAACCACTC: the binding signal (log2 normalized intensity) was -1.27.

On to CTATGTTTAATGTATAAACCCTGAGGGTCA, for which the binding signal (log2 normalized intensity) was found to be 2.99.

GAAATCATCTCCATGCCGACTCCGAACTAT: the binding signal (log2 normalized intensity) came to 0.433.

GCCAAGCTCTGGGCTAGTCCCTGAGTATTA: the binding signal (log2 normalized intensity) was -0.741.

With ATGGCTAGAAAGTCAGTGAAGGAGCTGACT, the binding signal (log2 normalized intensity) was -1.15.

For the sequence TTTGCTTTTCCCTGCTGCTGGCTGGCGGCC, the binding signal (log2 normalized intensity) was -1.19.

Take GGGTTAGGCCTGGAACCTGTCTGACAGGAT: the binding signal (log2 normalized intensity) is -0.182.

Turning to CTTGTCACTTTCCCTTTGTCTCCAGGCCCT, the binding signal (log2 normalized intensity) was -0.134.

As for GAGGGGGGAGGGTCGGCAACGGTGATTACC, the binding signal (log2 normalized intensity) is -1.16.

As to GGGCCTGCGAGGTTACAGGGTTCAACACGT, the binding signal (log2 normalized intensity) was 2.76.

Regarding CCATGACTGCTCCCTCTGCTCCCCTGGCCT, the binding signal (log2 normalized intensity) is 2.19.

Consider ATGGGAACTTCTCACCTTCAGATGCCATGT, for which the binding signal (log2 normalized intensity) worked out at 1.15.

For TGACATTGGTGGAATCTGAACTTTTGGCTC, the binding signal (log2 normalized intensity) was found to be 2.67.

Turning to CTCTGCCCCTCATCGAGGCCATCCCAGTTA, the binding signal (log2 normalized intensity) worked out at 3.38.

GCCAGGACAAAGGTCCTGTGGCCTGGGGAG: the binding signal (log2 normalized intensity) turned out to be 1.14.

As to GTATGGACTTTCTGATGTCAGAAAATGCAA, the binding signal (log2 normalized intensity) was determined as 0.883.

For the sequence GAGACAACTGCAACAGGAGGACCTCTGGAT, the binding signal (log2 normalized intensity) is -0.854.

For the sequence CTGCTTTGTGGCATCAGGGTCCACAAGGGT, the binding signal (log2 normalized intensity) turned out to be 3.18.
